Data on 1 molecule can be found in publication PMC4624786.

The target of the experiment is T1, N-terminal cytoplasmic domain of NBCe1-B (residues 1–468) fused to maltose-binding protein (UniProt Q9Y6R1).
T1 sequence: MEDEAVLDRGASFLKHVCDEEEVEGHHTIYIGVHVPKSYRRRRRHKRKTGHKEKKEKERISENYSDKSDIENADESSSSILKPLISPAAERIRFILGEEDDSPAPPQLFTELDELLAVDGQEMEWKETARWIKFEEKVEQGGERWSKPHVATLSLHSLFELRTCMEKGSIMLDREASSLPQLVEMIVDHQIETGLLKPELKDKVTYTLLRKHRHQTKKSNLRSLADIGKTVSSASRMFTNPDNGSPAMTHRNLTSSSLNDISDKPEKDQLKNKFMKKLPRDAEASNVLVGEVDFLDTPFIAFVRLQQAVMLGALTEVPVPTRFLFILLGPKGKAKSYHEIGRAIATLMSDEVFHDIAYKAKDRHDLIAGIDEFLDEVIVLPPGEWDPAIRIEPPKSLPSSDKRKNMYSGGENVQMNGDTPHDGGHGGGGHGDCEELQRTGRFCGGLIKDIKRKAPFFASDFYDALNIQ
The experiment is described as follows: pull-down; COS-7 cell lysates (myc-PIPKIα or myc-PIPKIIα with or without HA-IRBIT) incubated with 5 μg MBP fusion protein for 1 hr at 4°C, amylose resin, washed with lysis buffer, eluted with 100 mM maltose; Western blot; only the target purified.

No constants are given. Whether binding was seen depends on the method and setting. Binding seen in cells or lysates may run through a third protein. Some binding calls cover weakened binding; strength is not graded here. Tags and fused reporters may be left off the sequences shown.

B1: myc-tagged phosphatidylinositol phosphate kinase type IIα (enzyme, UniProt Q9R0I8 1-406)
chain: MATPSNLGSSVLASKTKTKKKHFVAQKVKLFRASDPLLSVLMWGVNHSINELSHVQIPVMLMPDDFKAYSKIKVDNHLFNKENMPSHFKFKEYCPMVFRNLRERFGIDDQDFQNSLTRSAPLPNDSQARSGARFHTSYDKRYVIKTITSEDVAEMHNILKKYHQYIVECHGVTLLPQFLGMYRLNVDGVEIYVIVTRNVFSHRLSVYRKYDLKGSTVAREASDKEKAKELPTLKDNDFINEGQKIYIDDSNKKIFLEKLKKDVEFLAQLKLMDYSLLVGIHDVERAEQEEVECEENEGEEEGESDGAHPIGTPPDSPGNTLNSSPPLAPGEFDPNIDVYAIKCHENAPRKEVYFMAIIDILTHYDAKKKAAHAAKTVKHGAGAEISTVNPEQYSKRFLDFIGHILT
Turning to B1, the binding entry is recorded as “binds”.
